# System: TLS174T tumor cells
# Assay: Efficacy in xenograft mouse model of human colorectal cancer
# Conditions: TAB2.5 1 mg/kg IV, 24 h later GC-Mel 150 mg/kg IV; FIG. 26
substance,measurement,value
glutaryl-cephalosporin-melphalan [GC-Mel],tumor growth inhibition,active in inhibiting the growth of TLS174T tumor cells
